Test results published in PMC9911399, “Two distinct binding modes provide the RNA-binding protein RbFox with extraordinary sequence specificity”.
Positions count from the first letter of the chain named. The list shows a part of the results.

T1: RBFOX1 RRM RbFoxmut (Fox-RRM*) (Homo sapiens, UniProt Q9NWB1 109-208, R118D;E147R;N151S;E152T)
T1 sequence: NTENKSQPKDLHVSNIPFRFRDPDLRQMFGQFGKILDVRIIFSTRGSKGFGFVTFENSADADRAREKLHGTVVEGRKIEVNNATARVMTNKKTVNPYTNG

B1: UUAUAGC (DNA:RNA)
RNA: GGGAGACCGGAAUUCAGAUUGUCCUUAUAGCUUAAAUCCCGUCGUAGCCACCA
DNA 1: CAATCTGAATTCCGGTCTCCC
DNA 2: TGGTGGCTACGACGGGATT
B2: GUAAACA (DNA:RNA)
RNA: B1 RNA with U25G, U28A, G30C, C31A
DNA 1: CAATCTGAATTCCGGTCTCCC
DNA 2: TGGTGGCTACGACGGGATT
B3: AGCUAUC (DNA:RNA)
RNA: B1 RNA with U25A, U26G, A27C, G30U
DNA 1: CAATCTGAATTCCGGTCTCCC
DNA 2: TGGTGGCTACGACGGGATT
B4: GCAAGCA (DNA:RNA)
RNA: B1 RNA with U25G, U26C, U28A, A29G, G30C, C31A
DNA 1: CAATCTGAATTCCGGTCTCCC
DNA 2: TGGTGGCTACGACGGGATT
B5: GAAGCGA (DNA:RNA)
RNA: B1 RNA with U25G, U26A, U28G, A29C, C31A
DNA 1: CAATCTGAATTCCGGTCTCCC
DNA 2: TGGTGGCTACGACGGGATT
B6: UGAGGUU (DNA:RNA)
RNA: B1 RNA with U26G, U28G, A29G, G30U, C31U
DNA 1: CAATCTGAATTCCGGTCTCCC
DNA 2: TGGTGGCTACGACGGGATT
B7: CAGUUAG (DNA:RNA)
RNA: B1 RNA with U25C, U26A, A27G, A29U, G30A, C31G
DNA 1: CAATCTGAATTCCGGTCTCCC
DNA 2: TGGTGGCTACGACGGGATT
B8: UGGAGUC (DNA:RNA)
RNA: B1 RNA with U26G, A27G, U28A, A29G, G30U
DNA 1: CAATCTGAATTCCGGTCTCCC
DNA 2: TGGTGGCTACGACGGGATT
B9: CAUAAAU (DNA:RNA)
RNA: B1 RNA with U25C, U26A, A27U, U28A, G30A, C31U
DNA 1: CAATCTGAATTCCGGTCTCCC
DNA 2: TGGTGGCTACGACGGGATT
B10: AGUUGCC (DNA:RNA)
RNA: B1 RNA with U25A, U26G, A27U, A29G, G30C
DNA 1: CAATCTGAATTCCGGTCTCCC
DNA 2: TGGTGGCTACGACGGGATT
B11: UUUCUAU (DNA:RNA)
RNA: B1 RNA with A27U, U28C, A29U, G30A, C31U
DNA 1: CAATCTGAATTCCGGTCTCCC
DNA 2: TGGTGGCTACGACGGGATT
B12: CAGCCGC (DNA:RNA)
RNA: B1 RNA with U25C, U26A, A27G, U28C, A29C
DNA 1: CAATCTGAATTCCGGTCTCCC
DNA 2: TGGTGGCTACGACGGGATT
B13: CGGGCCU (DNA:RNA)
RNA: GGGAGACCGGAAUUCAGAUUGUCCCGGGCCUUUAAAUCCCGUCGUAGCCACCA
DNA 1: CAATCTGAATTCCGGTCTCCC
DNA 2: TGGTGGCTACGACGGGATT
B14: AGUCAAU (DNA:RNA)
RNA: B13 RNA with C25A, G27U, G28C, C29A, C30A
DNA 1: CAATCTGAATTCCGGTCTCCC
DNA 2: TGGTGGCTACGACGGGATT
B15: CUGUUAA (DNA:RNA)
RNA: B13 RNA with G26U, G28U, C29U, C30A, U31A
DNA 1: CAATCTGAATTCCGGTCTCCC
DNA 2: TGGTGGCTACGACGGGATT
B16: CCAUCUC (DNA:RNA)
RNA: B1 RNA with U25C, U26C, A29C, G30U
DNA 1: CAATCTGAATTCCGGTCTCCC
DNA 2: TGGTGGCTACGACGGGATT
B17: CAAGAAC (DNA:RNA)
RNA: B1 RNA with U25C, U26A, U28G, G30A
DNA 1: CAATCTGAATTCCGGTCTCCC
DNA 2: TGGTGGCTACGACGGGATT
B18: CGGGGCC (DNA:RNA)
RNA: B13 RNA with C29G, U31C
DNA 1: CAATCTGAATTCCGGTCTCCC
DNA 2: TGGTGGCTACGACGGGATT
B19: GUAAGUU (DNA:RNA)
RNA: B1 RNA with U25G, U28A, A29G, G30U, C31U
DNA 1: CAATCTGAATTCCGGTCTCCC
DNA 2: TGGTGGCTACGACGGGATT
B20: UUCUCGG (DNA:RNA)
RNA: B1 RNA with A27C, A29C, C31G
DNA 1: CAATCTGAATTCCGGTCTCCC
DNA 2: TGGTGGCTACGACGGGATT

Target: T1, RBFOX1 RRM RbFoxmut (Fox-RRM*)
Test: EMSA; HiTS-Eq, 1 nM pool, 10 min; buffer printed only for the single-RNA assays: 10 mM Tris pH 7.5, 150 mM NaCl, 3.4 mM EDTA, 0.001% NP-40, 30 C
Conditions: tags: His6 N-terminal (pET28a); label: 5' 32P
How it was run: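 These values rest on relative association constants, computed from read-count changes of each RNA species versus the control reaction and normalised to the cognate motif. Reads came from free RNA recovered by 8% native PAGE after purified RbFox RRM (wild type or mutant) at increasing concentrations was equilibrated for 10 min in 50 µL with 1 nM of a 5′-radiolabelled pool with 7 randomized nucleotides and DNA-annealed flanks.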

Binder | binding signal
B1 | 0.124 KA relative to UGCAUGU
B2 | 0.129 KA relative to UGCAUGU
B3 | 0.118 KA relative to UGCAUGU
B4 | 0.0929 KA relative to UGCAUGU
B5 | 0.0769 KA relative to UGCAUGU
B6 | 0.0836 KA relative to UGCAUGU
B7 | 0.132 KA relative to UGCAUGU
B8 | 0.18 KA relative to UGCAUGU
B9 | 0.0856 KA relative to UGCAUGU
B10 | 0.205 KA relative to UGCAUGU
B11 | 0.0858 KA relative to UGCAUGU
B12 | 0.0819 KA relative to UGCAUGU
B13 | 0.0905 KA relative to UGCAUGU
B14 | 0.0609 KA relative to UGCAUGU
B15 | 0.105 KA relative to UGCAUGU
B16 | 0.0807 KA relative to UGCAUGU
B17 | 0.106 KA relative to UGCAUGU
B18 | 0.231 KA relative to UGCAUGU
B19 | 0.11 KA relative to UGCAUGU
B20 | 0.0748 KA relative to UGCAUGU
